Experimental data reported in the supplement of paper PMC10369915.
Some of the results follow. No stated cut-off is given here; in the data, active = 3.2 or more and inactive = the rest. Only a few entries rise above the background.

The binders below were run against SHP2 C-SH2 domain E139D (assay: enrichment score (SH2-bound / input frequency) (ratio); bacterial display of known human phosphotyrosine sites (pTyr-Var adds point mutants) read by sequencing; higher = stronger binding; tyrosines were phosphorylated by kinases first). Conditions: peptide library: Human pTyr.
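Further: displayed peptides selected on beads carrying the immobilized SH2 domain, with library peptides lacking any tyrosine serving as negative controls.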

Enrichment score, inactive:
MSDPGVSYRTREEIQ [ODPA_HUMAN_301] 0.696, DVYSTDYYRLFNPSG [NTRK3_HUMAN_710] 0.627, ARVITNQYNNPAGLA [PDLI1_HUMAN_144_YA] 0.59, AATTEFLYNLASSEG [PFKAL_HUMAN_640_YA] 0.734, SFDLTTPYRIFSFSA [ARAP1_HUMAN_504] 0.847, VESLESLYFTPIPAR [NUMA1_HUMAN_1774] 1.25, ENRFSCWYDADLSPA [PGAM4_HUMAN_26] 1.42, ENRFSGWYDADLSPA [PGAM1_HUMAN_26] 0.612, SLSSENPYATIRDLP [PEAR1_HUMAN_925] 1.98, GVRVRALYDYDGQEQ [PACN1_HUMAN_394] 1.51, ADESTRSYVILSFEN [PGFRA_HUMAN_720] 1.31, EDDDANSYENVLICK [NTAL_HUMAN_136] 1.1, SREYDRLYEEYTRTS [P85A_HUMAN_467] 0.904, DVYSTDYYRVGGHTM [NTRK2_HUMAN_707] 0.698, SDHMENVYGALMKAT [OSB11_HUMAN_62_YA] 0.899, KMLCEQAYLVAPELE [PDK3_HUMAN_212_YA] 1.19, IVGSKPLYVALAQRK [PABP4_HUMAN_364] 0.885, GYRDSGYYWEVPPSE [ARAF_HUMAN_302] 0.658

Each binder was assayed against SHP2 C-SH2 domain wild-type in the same assay as above. Conditions: peptide library: Human pTyr.

Enrichment score, active:
SLSSENPYATIRDLP [PEAR1_HUMAN_925] 5.32

Enrichment score, inactive:
MSDPGVSYRTREEIQ [ODPA_HUMAN_301] 0.641, DVYSTDYYRLFNPSG [NTRK3_HUMAN_710] 0.643, ARVITNQYNNPAGLA [PDLI1_HUMAN_144_YA] 0.541, AATTEFLYNLASSEG [PFKAL_HUMAN_640_YA] 0.572, SFDLTTPYRIFSFSA [ARAP1_HUMAN_504] 0.709, VESLESLYFTPIPAR [NUMA1_HUMAN_1774] 1.11, ENRFSCWYDADLSPA [PGAM4_HUMAN_26] 1.49, ENRFSGWYDADLSPA [PGAM1_HUMAN_26] 0.56, GVRVRALYDYDGQEQ [PACN1_HUMAN_394] 1.42, ADESTRSYVILSFEN [PGFRA_HUMAN_720] 1.4, EDDDANSYENVLICK [NTAL_HUMAN_136] 0.827, SREYDRLYEEYTRTS [P85A_HUMAN_467] 0.705, DVYSTDYYRVGGHTM [NTRK2_HUMAN_707] 0.681, SDHMENVYGALMKAT [OSB11_HUMAN_62_YA] 0.782, KMLCEQAYLVAPELE [PDK3_HUMAN_212_YA] 1.14, IVGSKPLYVALAQRK [PABP4_HUMAN_364] 0.996, GYRDSGYYWEVPPSE [ARAF_HUMAN_302] 0.563

The binders below were run against SHP2 N-SH2 domain L43F in the same assay as above. Conditions: peptide library: Human pTyr.

Enrichment score, active:
ADESTRSYVILSFEN [PGFRA_HUMAN_720] 7.53

Enrichment score, inactive:
MSDPGVSYRTREEIQ [ODPA_HUMAN_301] 0.726, DVYSTDYYRLFNPSG [NTRK3_HUMAN_710] 0.72, ARVITNQYNNPAGLA [PDLI1_HUMAN_144_YA] 0.657, AATTEFLYNLASSEG [PFKAL_HUMAN_640_YA] 0.704, SFDLTTPYRIFSFSA [ARAP1_HUMAN_504] 0.901, VESLESLYFTPIPAR [NUMA1_HUMAN_1774] 0.973, ENRFSCWYDADLSPA [PGAM4_HUMAN_26] 1.17, ENRFSGWYDADLSPA [PGAM1_HUMAN_26] 0.534, SLSSENPYATIRDLP [PEAR1_HUMAN_925] 0.664, GVRVRALYDYDGQEQ [PACN1_HUMAN_394] 1.25, EDDDANSYENVLICK [NTAL_HUMAN_136] 1.14, SREYDRLYEEYTRTS [P85A_HUMAN_467] 0.661, DVYSTDYYRVGGHTM [NTRK2_HUMAN_707] 0.47, SDHMENVYGALMKAT [OSB11_HUMAN_62_YA] 0.937, KMLCEQAYLVAPELE [PDK3_HUMAN_212_YA] 1.6, IVGSKPLYVALAQRK [PABP4_HUMAN_364] 0.739, GYRDSGYYWEVPPSE [ARAF_HUMAN_302] 0.592

What follows are binders tested against SHP2 N-SH2 domain T42A in the same assay as above. Conditions: peptide library: Human pTyr.

Enrichment score, inactive:
MSDPGVSYRTREEIQ [ODPA_HUMAN_301] 0.786, DVYSTDYYRLFNPSG [NTRK3_HUMAN_710] 0.448, ARVITNQYNNPAGLA [PDLI1_HUMAN_144_YA] 0.759, AATTEFLYNLASSEG [PFKAL_HUMAN_640_YA] 0.86, SFDLTTPYRIFSFSA [ARAP1_HUMAN_504] 0.664, VESLESLYFTPIPAR [NUMA1_HUMAN_1774] 0.922, ENRFSCWYDADLSPA [PGAM4_HUMAN_26] 1.48, ENRFSGWYDADLSPA [PGAM1_HUMAN_26] 0.577, SLSSENPYATIRDLP [PEAR1_HUMAN_925] 0.717, GVRVRALYDYDGQEQ [PACN1_HUMAN_394] 1.07, EDDDANSYENVLICK [NTAL_HUMAN_136] 1.02, SREYDRLYEEYTRTS [P85A_HUMAN_467] 0.59, DVYSTDYYRVGGHTM [NTRK2_HUMAN_707] 0.556, SDHMENVYGALMKAT [OSB11_HUMAN_62_YA] 0.85, KMLCEQAYLVAPELE [PDK3_HUMAN_212_YA] 1.18, IVGSKPLYVALAQRK [PABP4_HUMAN_364] 1.25, GYRDSGYYWEVPPSE [ARAF_HUMAN_302] 0.693

Enrichment score, active:
ADESTRSYVILSFEN [PGFRA_HUMAN_720] 7

The binders below were run against SHP2 N-SH2 domain T52S in the same assay as above. Conditions: peptide library: Human pTyr.

Enrichment score, active:
ADESTRSYVILSFEN [PGFRA_HUMAN_720] 4.71

Enrichment score, inactive:
MSDPGVSYRTREEIQ [ODPA_HUMAN_301] 0.965, DVYSTDYYRLFNPSG [NTRK3_HUMAN_710] 0.572, ARVITNQYNNPAGLA [PDLI1_HUMAN_144_YA] 0.904, AATTEFLYNLASSEG [PFKAL_HUMAN_640_YA] 0.774, SFDLTTPYRIFSFSA [ARAP1_HUMAN_504] 0.934, VESLESLYFTPIPAR [NUMA1_HUMAN_1774] 1.19, ENRFSCWYDADLSPA [PGAM4_HUMAN_26] 1.67, ENRFSGWYDADLSPA [PGAM1_HUMAN_26] 0.561, SLSSENPYATIRDLP [PEAR1_HUMAN_925] 0.592, GVRVRALYDYDGQEQ [PACN1_HUMAN_394] 1.28, EDDDANSYENVLICK [NTAL_HUMAN_136] 0.977, SREYDRLYEEYTRTS [P85A_HUMAN_467] 0.722, DVYSTDYYRVGGHTM [NTRK2_HUMAN_707] 0.623, SDHMENVYGALMKAT [OSB11_HUMAN_62_YA] 1.3, KMLCEQAYLVAPELE [PDK3_HUMAN_212_YA] 1.26, IVGSKPLYVALAQRK [PABP4_HUMAN_364] 0.744, GYRDSGYYWEVPPSE [ARAF_HUMAN_302] 0.668

These binders were tested against SHP2 N-SH2 domain wild-type in the same assay as above. Conditions: peptide library: Human pTyr.

Enrichment score, inactive:
MSDPGVSYRTREEIQ [ODPA_HUMAN_301] 0.703, DVYSTDYYRLFNPSG [NTRK3_HUMAN_710] 0.426, ARVITNQYNNPAGLA [PDLI1_HUMAN_144_YA] 0.525, AATTEFLYNLASSEG [PFKAL_HUMAN_640_YA] 0.737, SFDLTTPYRIFSFSA [ARAP1_HUMAN_504] 1, VESLESLYFTPIPAR [NUMA1_HUMAN_1774] 1.11, ENRFSCWYDADLSPA [PGAM4_HUMAN_26] 1.72, ENRFSGWYDADLSPA [PGAM1_HUMAN_26] 0.604, SLSSENPYATIRDLP [PEAR1_HUMAN_925] 0.599, GVRVRALYDYDGQEQ [PACN1_HUMAN_394] 1.22, ADESTRSYVILSFEN [PGFRA_HUMAN_720] 2.5, EDDDANSYENVLICK [NTAL_HUMAN_136] 1.16, SREYDRLYEEYTRTS [P85A_HUMAN_467] 0.773, DVYSTDYYRVGGHTM [NTRK2_HUMAN_707] 0.629, SDHMENVYGALMKAT [OSB11_HUMAN_62_YA] 1.2, KMLCEQAYLVAPELE [PDK3_HUMAN_212_YA] 1.14, IVGSKPLYVALAQRK [PABP4_HUMAN_364] 0.908, GYRDSGYYWEVPPSE [ARAF_HUMAN_302] 0.667
